# This is one part of the list.
# System: T1, Caupolican (Caup) homeodomain DNA-binding domain
# T1 sequence: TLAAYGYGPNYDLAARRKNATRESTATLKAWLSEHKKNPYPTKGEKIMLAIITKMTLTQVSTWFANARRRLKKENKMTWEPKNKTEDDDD
# Assay: PBM E-score (8-mer, recovered from the published 9-mer minima) (E-score (dimensionless, -0.5 to 0.5)); Drosophila protein; higher = stronger relative binding preference, active = 0.31 or more
# Method: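 Protein binding microarray (PBM): in vitro transcribed/translated Caupolican (Caup) homeodomain DNA-binding domain (residues 214-303) applied at 100 nM to a universal 8-mer PBM array (Agilent AMADID 015681). The 8-mer enrichment score (E-score, range -0.5 to 0.5) was computed, and each 9-mer score is the minimum E-score of its two constituent 8-mers. The E-score is the same for a 9-mer and its reverse complement; 0.31 is the stated binding threshold.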
row,Sequence,PBM E-score
1,CTACATAG,inactive: 0.215
2,CTGATCCC,inactive: -0.0849
3,AGTATCAG,inactive: 0.0752
4,ATGGCAAG,inactive: -0.0682
5,CTCGAGGA,inactive: -0.0712
6,ACGGGACC,inactive: -0.15
7,ACATGGTG,active: 0.366
8,AAGAGCAT,inactive: 0.107
9,TAACGGAA,inactive: 0.0231
10,ACCCGGGT,inactive: -0.178
11,CACTTGGG,inactive: -0.105
12,AGCGCTTC,inactive: -0.0427
13,CCCGAACG,inactive: -0.0905
14,CAAAATGG,inactive: 0.0491
15,CTAAAAGC,inactive: -0.197
16,TGCCACAA,inactive: 0.0197
17,CAACATTC,inactive: 0.0579
18,CGTTACGC,inactive: -0.0326
19,CCCCCTTC,inactive: -0.389
20,ATTCCGCA,inactive: -0.0995
21,CTTTGAGA,inactive: -0.0322
22,AACCCATG,inactive: 0.0859
23,AAATGTTC,inactive: 0.247
24,CATGTTTA,active: 0.399
25,ACCATAAT,inactive: 0.119

row,Sequence,PBM E-score
1,CATTCACA,inactive: 0.129
2,ACTTGCTC,inactive: 0.106
3,CTCTTCTC,inactive: -0.179
4,CCCAGGCG,inactive: -0.286
5,ATCTACTG,inactive: 0.119
6,GCACGTTA,inactive: -0.0122
7,ACCGACGT,≥ -0.0125
8,GTCAGTTA,inactive: 0.142
9,GTAATAAA,inactive: 0.168
10,ACACCATC,inactive: 0.189
11,AGCACAAT,inactive: 0.106
12,CCGGCAAA,inactive: -0.0453
13,ACCTGTTC,inactive: 0.199
14,AAAGACAA,inactive: 0.259
15,AACGGTTC,inactive: -0.111
16,CACAGTGA,inactive: 0.0675
17,CATGTGGG,inactive: 0.0391
18,AGAGACTA,inactive: 0.00357
19,CACAGCTC,inactive: -0.0354
20,ACCTAGTG,inactive: 0.0321
21,CAACTTCC,inactive: -0.0271
22,AAATTCTG,inactive: 0.0565
23,AAGATTGG,inactive: 0.0988
24,GGCACGAC,inactive: -0.0298
25,CCGATCCC,inactive: -0.184

row,Sequence,PBM E-score
1,CACAGATC,inactive: 0.019
2,AATGGGTC,inactive: -0.129
3,CGTCGTAA,inactive: 0.133
4,TCAGGGAA,inactive: -0.0973
5,TCTTGCCA,inactive: 0.00741
6,AAATGCAG,inactive: 0.0211
7,GCGCCATA,inactive: -0.109
8,AGTTTGCA,inactive: 0.0319
9,CCCCATAA,inactive: -0.104
10,CCTATTAG,inactive: 0.072
11,CCATATGC,inactive: 0.0246
12,AGGGATTC,inactive: -0.0888
13,CAGCATCG,inactive: -0.0915
14,CGCTGGCA,inactive: -0.112
15,GTTTCCGA,inactive: 0.031
16,CCACTATA,inactive: 0.0838
17,CCCATTCG,inactive: -0.136
18,GCCGGAGC,inactive: -0.274
19,GCAGGACC,inactive: -0.165
20,AAGCCCTG,inactive: -0.079
21,AATTTTGC,inactive: 0.0823
22,AATATGCG,inactive: 0.0313
23,GAAATGAC,inactive: 0.123
24,AGAATGCC,inactive: -0.0772
25,GATTTGTA,inactive: 0.255

row,Sequence,PBM E-score
1,GTTGTTGA,active: 0.321
2,CGCTTTAG,inactive: -0.103
3,AGTGAACA,inactive: 0.284
4,TGGTCGAA,inactive: -0.024
5,TAGAAATA,inactive: 0.1
6,AGTTAGCC,inactive: -0.147
7,CAAACCCG,inactive: -0.118
8,GATCTATA,inactive: 0.119
9,ACCTGTCC,inactive: 0.0919
10,CTGGCCAC,inactive: -0.142
11,ATGTAAGG,inactive: 0.303
12,GACTAATA,inactive: 0.175
13,CGCTTCTC,inactive: -0.18
14,CCAGAGCC,inactive: -0.187
15,CAGCGTCG,inactive: -0.141
16,ACGGCCGA,inactive: -0.108
17,GGAACTGA,inactive: -0.043
18,ACGGATAG,inactive: -0.0384
19,AACCCTCG,inactive: -0.0473
20,CCTCGCAA,inactive: -0.094
21,ACATCTAA,inactive: 0.238
22,GCGCGCCA,inactive: -0.156
23,AGGGGCGA,inactive: -0.186
24,TTATTCAA,inactive: 0.163
25,GTGGTTTA,inactive: 0.0307

row,Sequence,PBM E-score
1,CAGAGCGA,inactive: -0.0616
2,AGCAGTAA,inactive: 0.0927
3,GCATACGC,inactive: -0.0725
4,AGGGTCCA,inactive: -0.233
5,AGTCAAAT,inactive: 0.0885
6,ATGATAGG,inactive: -0.0525
7,ACTCTTGC,inactive: 0.0129
8,AGAGTAGG,inactive: 0.00327
9,ATACCCGA,inactive: 0.00121
10,GGGGAACA,inactive: 0.0776
11,CGCTTCAC,inactive: -0.212
12,CTCCCGCC,inactive: -0.217
13,ACGTTCTC,inactive: 0.0157
14,AGCAGAGG,inactive: -0.177
15,ATCTGAGG,inactive: -0.017
16,CGACCCAA,inactive: -0.0571
17,GAATTGTC,inactive: 0.0615
18,ATGCTATC,inactive: -0.012
19,CTAAGTGA,inactive: 0.0437
20,CAGTTACG,inactive: -0.0164
21,TCCAGAAA,inactive: 0.0344
22,GGTGAGAA,inactive: -0.068
23,CAAGGCGA,inactive: -0.0101
24,CACTTGCA,inactive: 0.113
25,ACTCGATC,inactive: -0.0238

row,Sequence,PBM E-score
1,ACTGTGAA,inactive: 0.0229
2,ACGGTCAG,inactive: -0.0409
3,ACTCTATG,inactive: -0.0241
4,TGAGGCAA,inactive: -0.0847
5,CCCGTAAC,inactive: 0.021
6,AGGAAACG,inactive: -0.0134
7,TCCGCGGA,≥ -0.111
8,CACCCTTC,inactive: -0.0703
9,TTACATAA,active: 0.339
10,CAACAAAA,inactive: 0.232
11,GACTTAGA,inactive: -0.0595
12,ACATTGAG,inactive: 0.134
13,CTCCGGAG,inactive: -0.203
14,ATACAAGG,inactive: 0.283
15,GCATCTCA,inactive: 0.0106
16,CAAACAAG,inactive: 0.2
17,CACAACTC,inactive: 0.0177
18,AAACGCCC,inactive: -0.126
19,CTTTATCA,inactive: 0.0949
20,GCAGCGCA,inactive: -0.191
21,AGTTTACC,inactive: 0.0187
22,ACAGCATA,inactive: 0.154
23,GACGACAC,inactive: 0.191
24,AACAGCCG,inactive: 0.00479
25,CAGATGAA,≥ 0.139

row,Sequence,PBM E-score
1,ACCGGCAA,inactive: -0.0801
2,GCCGACGC,inactive: -0.22
3,ACTCTCTA,inactive: 0.0135
4,AATGTCAG,inactive: 0.197
5,CAAAGATC,inactive: -0.00782
6,ACTCTCCT,inactive: -0.0347
7,AGCCAGCG,inactive: -0.15
8,CGGAGTGA,inactive: -0.0315
9,AGATTCAG,inactive: 0.00643
10,CAAAGGGG,inactive: -0.109
11,CCTAGGCC,inactive: -0.185
12,AGGAACAG,inactive: 0.0859
13,CTACAGAC,inactive: 0.0295
14,ATTCTAGG,≥ 0.108
15,GCAGCGAA,inactive: -0.0191
16,CATTGGCG,inactive: -0.0798
17,ATAGTGAC,inactive: 0.0921
18,CACCCAGA,inactive: -0.00339
19,CCTTGTTC,inactive: 0.24
20,ATCCTAAT,inactive: 0.0673
21,ATCATCTA,inactive: 0.00426
22,ACCCAGCA,inactive: -0.0769
23,CAAGAACG,inactive: -0.00317
24,ATGGTTGC,inactive: -0.0634
25,ATGACGTA,≥ 0.15

row,Sequence,PBM E-score
1,ATCAAATA,inactive: 0.125
2,ATGTTTTC,active: 0.33
3,GATGTGCA,inactive: 0.102
4,CGAGACAA,inactive: 0.0948
5,AGCTAATG,inactive: 0.0599
6,CCATTCAA,inactive: 0.0195
7,ATCGTAAT,≥ 0.193
8,ATACCTGC,inactive: 0.053
9,CGCTACAC,inactive: 0.104
10,ACTTAACA,inactive: 0.22
11,ACAAAGCA,inactive: 0.17
12,AGCTCACG,inactive: -0.0814
13,GAGTGAAC,inactive: -0.00908
14,TATCGCAA,inactive: 0.0789
15,CAGAAGCC,inactive: -0.192
16,CGCCGCGC,inactive: -0.237
17,AGGGACGG,inactive: -0.28
18,CACTATAC,inactive: 0.121
19,GGAGACAC,inactive: 0.0998
20,AATGTGTA,active: 0.311
21,CACCAACG,inactive: 0.0127
22,AAAGCTAC,inactive: -0.00022
23,CTCTTACC,inactive: 0.0184
24,GCATTCGA,inactive: 0.0105
25,CCCCCGCG,inactive: -0.26

row,Sequence,PBM E-score
1,CAGCAAAA,inactive: 0.0451
2,TCGTCTCA,≥ -0.009
3,GGGTAAAA,inactive: 0.0208
4,CCGTAAAA,inactive: -0.0169
5,AAATTTCG,inactive: 0.0516
6,AGCAGCCT,inactive: -0.0531
7,ACACGGGG,inactive: 0.0798
8,AGGAAACC,inactive: -0.0942
9,AGTCAGTG,inactive: 0.0423
10,CTTGCCCA,inactive: -0.155
11,GACGGAAA,inactive: -0.0259
12,AACACTGT,inactive: 0.211
13,AATGAGAG,inactive: -0.111
14,ATACTACA,active: 0.364
15,AACTTAAA,inactive: 0.147
16,CACCAGCG,inactive: -0.101
17,CCGCGGAC,inactive: -0.13
18,ATTGGCCC,inactive: -0.2
19,GGACGACA,inactive: 0.205
20,GGTAGTGA,inactive: 0.0412
21,CGCAGAAA,inactive: -0.0964
22,CAGTAAAG,inactive: 0.00549
23,AACGTTTC,inactive: 0.0161
24,CCATAAGA,inactive: -0.046
